The other results are listed elsewhere or left out.

This assay deals with HSkMC (human skeletal muscle cells). Description: cytotoxicity call (relative viability < 0.9). The conditions noted are these: 10 µM.
For the compound `CO[C@H](CN(C)S(=O)(=O)c1cccc(Cl)c1)[C@H](C)CN([C@H](C)CO)S(=O)(=O)c1ccc(Cl)cc1`, the cytotoxicity call was “inactive”. `C[C@@H]1CN([C@H](C)CO)C(=O)c2cc(NS(=O)(=O)c3cn(C)cn3)ccc2O[C@@H](C)CCCCO[C@@H]1CN(C)C`: the cytotoxicity call is “inactive”. Take `CC(C)NCC(O)COc1cccc2[nH]c3ccccc3c12` (stereo not given): the cytotoxicity call was “inactive”. For the compound `CCCCn1c(N)c(N(CC)C(=O)Cc2ccc(S(=O)(=O)N3CCOCC3)s2)c(=O)[nH]c1=O`, the cytotoxicity call is “inactive”. On to `COC(=O)C1=C2CC[C@H](COC(=O)NCCCCCC(=O)NO)NC(=O)N[C@H](Cc3ccccc3)c3cn(nn3)C[C@@H](Cc3ccccc3)NC(=O)c3oc(c(C(=O)OC)c3C(=O)OC)CC[C@H](COC(=O)NCCCCCC(=O)NO)NC(=O)N[C@H](Cc3ccccc3)c3cn(nn3)C[C@@H](Cc3ccccc3)NC(=O)C(=C1C(=O)OC)O2`, for which the cytotoxicity call was “inactive”. As to `C[C@@H]1CCCCO[C@@H](CN(C)C(=O)CCC(F)(F)F)[C@H](C)CN([C@H](C)CO)C(=O)c2cc(NS(=O)(=O)c3ccc(F)cc3)ccc2O1`, the cytotoxicity call is “inactive”.

For `Cc1ccc(Oc2nnc(-c3cccs3)c3ccccc23)cc1`, the cytotoxicity call was “inactive”. `NCCCC(N)CC(=O)NC1CNC(=O)C(C2CC(O)NC(N)=N2)NC(=O)C(=CNC(N)=O)NC(=O)C(CO)NC(=O)C(CO)NC1=O.O=S(=O)(O)O` (stereo not given): the cytotoxicity call was “inactive”. Consider `OC[C@H]1O[C@H](n2cnc3cncnc32)[C@@H](O)[C@@H]1O`, for which the cytotoxicity call is “active”.

Regarding `CC(C)N1C[C@@H](C)[C@H](CN(C)Cc2ccc(Oc3ccccc3)cc2)Oc2c(C(=O)Nc3ccncc3)cccc2C1=O`, the cytotoxicity call is “inactive”. Consider `C[C@@H]1CN([C@@H](C)CO)C(=O)c2cccc(NC(=O)Nc3ccc(C(F)(F)F)cc3)c2O[C@@H]1CN(C)C(=O)Nc1ccc2c(c1)OCO2`, for which the cytotoxicity call is “inactive”. The same measure for `COCC(=O)Nc1ccc2c(c1)C(=O)N(C)C[C@@H](OC)[C@@H](C)CN(C(=O)c1ccccc1F)[C@@H](C)CO2`: “inactive”; for `CC(O)(P(=O)([O-])O)P(=O)([O-])O.[Na+].[Na+]`: “inactive”. Consider `O=C(O)C[C@@H](NCCN[C@H](CC(=O)O)C(=O)O)C(=O)O`, for which the cytotoxicity call was “inactive”. The same measure for `C[C@H](CO)N1C[C@H](C)[C@H](CN(C)Cc2ccc(Cl)c(Cl)c2)Oc2c(NC(=O)Nc3ccc(F)cc3)cccc2C1=O`: “inactive”. Regarding `CN1C(=O)c2cc(NS(C)(=O)=O)ccc2OC[C@@H]2O[C@@H](CC(=O)N3CCOCC3)CC[C@@H]21`, the cytotoxicity call was “inactive”.

For the compound `C[C@@H]1CN([C@H](C)CO)C(=O)Cc2cc(NC(=O)CCN3CCOCC3)ccc2O[C@H]1CN(C)Cc1ccc2c(c1)OCO2`, the cytotoxicity call is “inactive”.

As for `CC(C)NC(=O)N(C)C[C@H]1Oc2ccc(NC(=O)NC3CCCCC3)cc2C(=O)N([C@@H](C)CO)C[C@@H]1C`, the cytotoxicity call is “inactive”.

`COc1ccc(NC(=O)N(C)C[C@@H]2Oc3ccc(NC(=O)CCN4CCOCC4)cc3CC(=O)N([C@H](C)CO)C[C@H]2C)cc1`: the cytotoxicity call is “inactive”.

Consider `C[C@@H]1CN([C@H](C)CO)C(=O)Cc2cc(NC(=O)CCCCCC(=O)Nc3ccccc3N)ccc2O[C@H]1CN(C)Cc1ccc(-c2ccccc2)cc1`, for which the cytotoxicity call is “inactive”. For `CCC(=O)NCCN1CCN(C(=O)CC)CC1` the value was “inactive”.

Turning to `CCCNC(=O)N1C[C@]2(CCN(CC2)C(=O)Cc2cccnc2)c2c([nH]c3cc(ccc23)OC)[C@H]1CO`, the cytotoxicity call was “inactive”. With `O=C(C[C@H]1CC[C@H](NC(=O)CN2CCOCC2)[C@H](CO)O1)NCCc1ccncc1`, the cytotoxicity call was “inactive”. `COc1ccc(NC(=O)N(C)C[C@H]2OCCCC[C@H](C)Oc3ccc(NS(=O)(=O)c4ccc(C)cc4)cc3C(=O)N([C@H](C)CO)C[C@@H]2C)cc1`: the cytotoxicity call is “inactive”. In the case of `COc1ccc(S(=O)(=O)Nc2ccc3c(c2)C(=O)N([C@@H](C)CO)C[C@@H](C)[C@@H](CN(C)S(=O)(=O)c2ccccc2)O3)cc1`, the cytotoxicity call was “inactive”. As to `COCCOC(=O)N1C(=O)[C@@]2(c3ccccc31)[C@H](c1ccccc1OCCO)N1[C@H](c3ccccc3)[C@H](c3ccccc3)OC(=O)[C@H]1[C@@H]2C(=O)Nc1nc2ccccc2s1`, the cytotoxicity call was “inactive”.

With `C[C@@H]1CN([C@H](C)CO)C(=O)c2cc(NC(=O)NC3CCCCC3)ccc2O[C@@H]1CN(C)Cc1ccc(Cl)c(Cl)c1`, the cytotoxicity call is “inactive”. For `C=CCN1C(=O)[C@]2(O[C@@H](CCOC(=O)NCCCCCC(=O)NO)[C@H]([Si](C)(C)c3ccc(OC)cc3)[C@H]2C)c2cc(I)ccc21` the value was “inactive”; for `O=c1c(O)c(-c2ccc(O)c(O)c2)oc2cc(O)ccc12`, “inactive”. Consider `C[C@@H]1CCCCO[C@@H](CN(C)C(=O)Nc2ccc(C(F)(F)F)cc2)[C@H](C)CN([C@H](C)CO)C(=O)c2cc(NC(=O)C3CCCCC3)ccc2O1`, for which the cytotoxicity call is “inactive”. For `CO[C@H]1CN(C)C(=O)c2ccc(NS(=O)(=O)c3cn(C)cn3)cc2OC[C@H](C)N(Cc2cccc(F)c2)C[C@H]1C` the value was “inactive”. As to `C[C@H](CO)N1C[C@H](C)[C@@H](CN(C)Cc2ccc(Oc3ccccc3)cc2)Oc2ccc(NC(=O)C3CC3)cc2CC1=O`, the cytotoxicity call is “inactive”. For the compound `CC(C)NC(=O)Nc1ccc2c(c1)CC(=O)N([C@H](C)CO)C[C@@H](C)[C@H](CN(C)Cc1ccc(Oc3ccccc3)cc1)O2`, the cytotoxicity call is “inactive”. `Cc1noc(C)c1NC(=O)N(C)C[C@@H]1Oc2ccc(NS(=O)(=O)c3ccccc3)cc2CC(=O)N([C@H](C)CO)C[C@H]1C`: the cytotoxicity call is “inactive”. For `O=C(Nc1ccc2c(c1)[C@@H]1C[C@@H](CC(=O)N3CCc4ccccc4C3)O[C@H](CO)[C@@H]1O2)C1CCOCC1` the value was “inactive”; for `COc1cnc(SC)n(C)c1=O`, “inactive”; for `CNC(=O)c1ccc2c(c1)nnn2C`, “inactive”.

On to `COc1ccc(S(=O)(=O)Nc2ccc3c(c2)C(=O)N([C@@H](C)CO)C[C@H](C)[C@@H](CN(C)C(=O)Nc2ccc(F)cc2)OCCCC[C@H](C)O3)cc1`, for which the cytotoxicity call was “inactive”. As for `CN1C(=O)c2cc(NC(=O)Cc3cccs3)ccc2OC[C@@H]2O[C@H](CC(=O)NCCCN3CCOCC3)CC[C@@H]21`, the cytotoxicity call was “inactive”. Regarding `O=C1CCc2c(ccc3ccccc23)O1`, the cytotoxicity call was “inactive”.

These data come from the antibiotic and cytotoxicity screens of Wong et al. (2023).
